Reference: PMC4336329 (PLoS ONE, 2015)
Hit rate of the full screen: of about 310,000 compounds, about 2,200 (0.71%) showed an effect of 50% or more. The effect is printed as a negative number. Some of the results follow.

Each compound was assayed against human ether-à-go-go-related gene (hERG) potassium channel (human, UniProt Q12809) (assay: primary screen, population patch clamp on CHO cells stably expressing hERG).
Sequence of human ether-à-go-go-related gene (hERG) potassium channel (Q12809 whole entry, looked up): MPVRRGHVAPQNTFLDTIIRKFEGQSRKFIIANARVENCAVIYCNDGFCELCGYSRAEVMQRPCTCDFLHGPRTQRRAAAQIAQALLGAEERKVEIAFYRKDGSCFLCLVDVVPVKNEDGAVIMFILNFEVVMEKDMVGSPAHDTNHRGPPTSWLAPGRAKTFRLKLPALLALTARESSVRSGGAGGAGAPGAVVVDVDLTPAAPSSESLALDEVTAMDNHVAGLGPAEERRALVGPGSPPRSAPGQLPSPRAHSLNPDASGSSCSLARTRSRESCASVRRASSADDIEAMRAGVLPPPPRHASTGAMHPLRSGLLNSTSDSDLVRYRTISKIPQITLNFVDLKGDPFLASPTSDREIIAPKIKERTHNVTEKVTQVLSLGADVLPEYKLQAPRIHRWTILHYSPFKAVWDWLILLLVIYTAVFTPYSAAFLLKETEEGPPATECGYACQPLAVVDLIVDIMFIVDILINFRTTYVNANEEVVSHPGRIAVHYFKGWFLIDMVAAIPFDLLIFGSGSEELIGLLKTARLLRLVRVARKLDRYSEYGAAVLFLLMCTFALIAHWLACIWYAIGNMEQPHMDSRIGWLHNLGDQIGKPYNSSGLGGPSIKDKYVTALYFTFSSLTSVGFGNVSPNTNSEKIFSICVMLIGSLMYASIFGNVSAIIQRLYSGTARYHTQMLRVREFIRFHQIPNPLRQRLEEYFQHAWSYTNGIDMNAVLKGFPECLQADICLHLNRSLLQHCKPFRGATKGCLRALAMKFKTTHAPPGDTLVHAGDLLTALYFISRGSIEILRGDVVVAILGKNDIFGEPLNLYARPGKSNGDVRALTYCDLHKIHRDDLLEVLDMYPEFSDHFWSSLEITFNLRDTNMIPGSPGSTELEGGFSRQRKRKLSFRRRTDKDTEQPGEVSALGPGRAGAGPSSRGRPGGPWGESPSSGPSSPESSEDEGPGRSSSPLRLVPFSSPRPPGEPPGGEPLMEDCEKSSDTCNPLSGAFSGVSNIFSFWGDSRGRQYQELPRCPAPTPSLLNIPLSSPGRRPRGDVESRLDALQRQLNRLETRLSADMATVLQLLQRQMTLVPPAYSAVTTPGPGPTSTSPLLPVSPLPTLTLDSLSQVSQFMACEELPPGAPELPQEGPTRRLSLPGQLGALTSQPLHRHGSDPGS

In order of rising “hERG current change (%, negative = inhibition) at 1uM” value:
1. N#CC1=C(Nc2ccccc2)SC=C(c2ccc(Cl)c(Cl)c2)N=C1N1CCOCC1  -27.1%
2. CC(=O)Nc1cccc(OCC(=O)NCCC2=CCCCC2)c1  -12.1%
3. CC12CCC(=O)N1C(C(=O)Nc1ccccc1F)CS2 (stereo not shown)  -5.04%
4. CC12CCCCN1CCCc1c2[nH]c2ccccc12.Cl (stereo not shown)  -4.93%
5. CC(C)OCCCNC(=O)c1ccncc1  -4.16%
6. Cc1ccc(C2=NN(S(C)(=O)=O)C(c3ccc4nccnc4c3)C2)cc1 (stereo not shown)  -2.05%
7. COc1ccccc1CCC(=O)OCC(=O)N1CCN(S(=O)(=O)c2ccc(C)cc2C)CC1  -1.99%
8. Cc1nn(Cc2ccccc2Cl)c(C)c1NC(=O)c1cc(-c2ccc(F)cc2)on1  -1.82%
9. CCN(CC(=O)Nc1cc(Cl)ccc1Cl)C(=O)c1ccc(-n2cccn2)cc1  -0.183%
10. O=C(NCc1ccccc1)c1ccc(NS(=O)(=O)c2cccs2)cc1  0.454%
11. CCOC(=O)N1CCC(Nc2c(Nc3cccc(CC)c3)c(=O)c2=O)CC1  0.738%
12. CC(C)CC(NC(N)=O)C(=O)OCC(=O)Nc1ccc(SC(F)F)cc1 (stereo not shown)  0.791%
13. CC(=O)NC(C)C(=O)OCc1ccc(Cl)cc1Cl (stereo not shown)  1.73%
14. CC1Cc2ccccc2N1S(=O)(=O)c1ccc2c(c1)n(C)c(=O)c(=O)n2C (stereo not shown)  1.88%
15. Cc1noc(/C=C/N(C)C)c1S(=O)(=O)N1CCCC(C(=O)NC2CCCCC2C)C1 (stereo not shown)  2.4%
16. CCc1cccc(CC)c1NC(=S)NCC(c1cccnc1)N(C)C (stereo not shown)  2.94%
17. O=C(NNS(=O)(=O)c1ccccc1)c1cccnc1  3%
18. CSc1ccccc1NC(=O)C1=CC(c2ccc(C)cc2)=NS(=O)(=O)N1C  3%
19. Cc1ccc(CC2CC(=O)N(c3ccc4c(c3)OCCO4)C2=O)cc1 (stereo not shown)  3.09%
20. Cc1ccc(-c2nc(C#N)c(NCC3CCCO3)o2)cc1 (stereo not shown)  3.64%
21. CCCCc1c(C)c2ccc(OCC(C)=O)cc2oc1=O  3.7%
22. COC(=O)C1=C(C)NC2=C(C(=O)CC(c3cccs3)C2)C1c1ccsc1 (stereo not shown)  3.92%
23. CCOC(=O)Cn1c(=O)oc2cc(S(=O)(=O)NC(C)(C)CC)ccc21  4.12%
24. CCN(CC)CCC#CC(O)(c1ccccc1)C1CCCCC1 (stereo not shown)  4.82%
25. O=C(COc1ccccc1)Nc1cc(S(=O)(=O)N2CCOCC2)ccc1N1CCCC1  5.18%
26. CC(=O)c1ccc(-c2nnc(CCC(=O)N(C)Cc3c(C)nc4ccccn34)o2)s1  5.3%
27. O=C(CCCc1nc2ccccc2s1)NC(c1ccccc1)c1ccccc1  5.72%
28. CCN(c1ccccc1)S(=O)(=O)c1ccc(OCC(=O)Nc2cc(C)on2)cc1  6.26%
29. Cn1c(=O)c2c(ncn2CC(=O)Nc2nccs2)n(C)c1=O  6.48%
30. O=C(Cn1ncc2c([nH]c3ccccc32)c1=O)Nc1cccnc1  6.51%
31. CC(=O)N/C(=C\c1ccccc1)C(=O)OCC(=O)NC1CCCC1  6.53%
32. COc1ccc(CCNC(=O)c2ccc(N3CCCC3=O)cc2)cc1OC  6.54%
33. Oc1ccc(NCc2cccc(OCc3ccccc3)c2)cc1  6.71%
34. CN1CCN(c2ccc(Cl)cc2NC(=O)CCN2C(=O)c3ccccc3C2=O)CC1  6.75%
35. N#CC(C(=O)NC1CCCCC1)=C1CCCCCC1  6.76%
36. Cc1ccccc1Cc1c(C)nc2c(C(=O)N3CCN(Cc4ccc5c(c4)OCO5)CC3)cnn2c1C  7.01%
37. O=C(NCCC1CCCCN1S(=O)(=O)c1ccc(Cl)cc1)C(=O)NCc1ccncc1 (stereo not shown)  7.06%
38. Cc1ccc(CNC(=O)CN2C(=O)COc3ccc(S(=O)(=O)N4CCC(C)CC4)cc32)o1  8.05%
39. CCN1CN(Cc2ccccc2)CNC1=S  8.09%
40. CCn1c(C)nc2cc(C(=O)N/N=C/c3ccccc3)ccc21  8.41%
41. CCCc1nnc(SCc2ccc(OC)cc2)n1N  8.6%
42. COc1ccc(CCN2C(=O)C(Oc3ccccc3C)C2c2ccc3c(c2)OCO3)cc1OC (stereo not shown)  8.8%
43. CN(C)C1=NCCN1CC1CCCCCC1  8.83%
44. COC(=O)c1ccc(OCC(O)CNCC(c2ccc(OC)cc2)N(C)C)c(OC)c1 (stereo not shown)  9.05%
45. Cc1nc(Nc2cccc(C(F)(F)F)c2)nc2c1C(=O)CC(C)C2 (stereo not shown)  9.18%
46. CC1CCN(S(=O)(=O)N2CCC(C(=O)NCc3ccc4c(c3)OCO4)CC2)CC1  9.22%
47. CCc1c(C(=O)Nc2cc(C)cc(C)c2)[nH]c(C)c1C(C)=O  9.33%
48. O=C(O)Cn1nnn(-c2ccccc2)c1=S  9.44%
49. Cc1ccc(OCCCn2cc(C#N)c3ccccc32)cc1  9.55%
50. CSc1ccccc1NC(=O)CSc1n[nH]c(C)c1[N+](=O)[O-]  9.55%
51. C=C(C)Cn1c(=O)n(CC2CS2)c2ccccc21 (stereo not shown)  9.68%
52. CC1CCCCC1NC(=O)c1ccc(CNc2c(N3CCCC3)c(=O)c2=O)cc1 (stereo not shown)  9.71%
53. COc1ccc(OC)c(N=Cc2c(O)n(Cc3ccccc3)c(=S)[nH]c2=O)c1  10%
54. O=c1[nH]c(SCc2ccccc2)nnc1-c1ccccc1  10.4%
55. C=CCNc1nc(-c2c(C)nc3sccn23)cs1  10.4%
56. Cc1ccc(-n2c(=O)c3sccc3n(CC(=O)NC3CCCCC3)c2=O)cc1  10.5%
57. Nc1ccc2c(c1)Nc1ccccc1CC2  10.6%
58. CC1CC(CCN)(c2ccccc2)C(C)CN1C.Cl (stereo not shown)  11.4%
59. COc1ccc(/C(O)=C2/C(=O)C(=O)N(c3ccccn3)C2c2ccc(F)cc2)cc1 (stereo not shown)  11.8%
60. Cc1ccc(C)c(NC(=O)CSc2nnc(CNC(=O)c3ccco3)o2)c1  12.1%
61. O=C(N/N=C/c1ccc([N+](=O)[O-])cc1)c1c[nH]c2ccccc12  12.2%
62. O=c1cc(-c2ccccc2)nc2nc(SCc3ccccc3)[nH]n12  12.4%
63. Cc1cccc2c(=O)c(-c3ccc(Cl)cc3)c(NC(=O)c3ccco3)oc12  12.7%
64. CCOC(=O)C1=C(COC(=O)COc2ccc(C#N)cc2)NC(=O)NC1C (stereo not shown)  12.7%
65. COc1ccccc1-c1cc(C(=O)N/N=C/c2sccc2C)c2ccccc2n1  12.8%
66. COc1cccc(Nc2ncc(C#N)c(N)n2)c1  12.9%
67. CCc1nc2ccc(N3CCN(C)CC3)cc2nc1CC  12.9%
68. Cc1ccc(NC(=O)COC(=O)CCC(=O)c2ccc(C(C)(C)C)cc2)c([N+](=O)[O-])c1  13%
69. Cc1nc2ccc(S(=O)(=O)NCC(=O)Nc3ccc(F)cc3)cc2s1  13.1%
70. CC1CN(C(=O)Cn2cc(SCC(=O)N3CCOCC3)c3ccccc32)CC(C)O1 (stereo not shown)  13.2%
71. COc1cc(SC#N)ccc1N=Cc1c(C)[nH]n(-c2cccc3ccccc23)c1=O  13.4%
72. COC(=O)CCC(=O)OC1(C)C(=O)C=C2C=C(C3CC3)N(c3cccc(C#N)c3)C=C2C1=O (stereo not shown)  13.4%
73. COc1ccc(-c2nc3cnccn3c2NC(C)(C)CC(C)(C)C)cc1O  13.7%
74. Cc1nc2ccc(C(=O)O)cc2[nH]1  14.2%
75. CCN(CCNC(=O)c1ccc2nc(-c3ccccc3NC(C)=O)c(=O)[nH]c2c1)c1ccccc1  14.5%
76. COC(=O)c1ccc(C(=O)OC)c(NC(=O)CN2CCN(c3ccc(OC)cc3)CC2)c1  14.7%
77. CSC1=NC2(C[C@H]2c2ccccc2)C(=O)N1C (stereo partly shown)  15%
78. CC/C(=N\NC(=O)c1ccccc1)c1c(O)n(Cc2ccccc2)c(=O)[nH]c1=O  16.5%
79. COc1ccc(NC2CCCN(C(=O)c3cc(CC(C)C)nc(N)n3)C2)cc1 (stereo not shown)  16.7%
80. Cc1ccc(Nc2c(-c3ccc(N(C)C)cc3)nc3ncccn23)cc1  16.7%
81. Cc1ccc(C(=O)NCCn2cc(SCC(=O)Nc3cc(C)on3)c3ccccc32)cc1  16.9%
82. CC(C)N1C(=O)C(O)(C2COC(C)(C)CC2=O)c2ccccc21 (stereo not shown)  17%
83. COc1ccc(/C=C2/C(=O)N(Cc3ccco3)C(=O)N(C(C)C)C2=O)cc1  17.2%
84. COc1ccccc1-c1sc2ccccc2c1-c1ccc(Br)nc1  18.1%
85. O=C(NC(=S)Nc1cccc([N+](=O)[O-])c1)C1CCCCC1  18.7%
86. CC(C)C[C@H]1C(=O)N2CCC[C@H]2[C@]2(O)O[C@](NC(=O)C3C=C4c5cccc6[nH]c(Br)c(c56)C[C@H]4N(C)C3)(C(C)C)C(=O)N12.CS(=O)(=O)O (stereo partly shown)  19.4%
87. COc1ccc(NC(=O)CCOc2ccc(C)cc2)c(OC)c1  23.3%
88. CCc1c(O)nc(SCC(=O)Nc2ccccc2C)n(-c2ccc(C)cc2)c1=O  24.7%
